# In patent US6838475B2, “Imidazolidinones as NS3-serine protease inhibitors of hepatitis C virus” (Schering Corporation, priority 2000, dated 2005):
# Target: HCV NS3/NS4A protease (strain 1a) (Hepatitis C virus genotype 1a, UniProt P27958)
# Test: biochemical
# Conditions: not given
# Description: Spectronhotometric Assay: Spectrophotometric assay for the HCV serine protease was performed on the inventive compounds by following the procedure described by R. Zhang et al., Analytical Biochemistry, 270 (1999) 268-275, the disclosure of which is incorporated herein by reference. The assay based on the proteolysis of chromogenic ester substrates is suitable for the continuous monitoring of HCV NS3 protease activity. The substrates were derived from the P side of the NS5A—NS5B junction sequence (Ac-DTEDVVX(Nva) (SEQ ID NO: 1), where X=A or P) whose C-terminal carboxyl groups were esterified with one of four different chromophoric alcohols (3- or 4-nitrophenol, 7-hydroxy-4-methyl-coumarin, or 4-phenylazophenol).
# Protein concentrations were determined by the Biorad dye method using recombinant HCV protease standards previously quantified by amino acid analysis. Prior to assay initiation, the enzyme storage buffer (50 mM sodium phosphate pH 8.0, 300 mM NaCl, 10% glycerol, 0.05% lauryl maltoside and 10 mM DTT) was exchanged for the assay buffer (25 mM MOPS pH 6.5, 300 mM NaCl, 10% glycerol, 0.05% lauryl maltoside, 5 μM EDTA and 5 μM DTT) utilizing a Biorad Bio-Spin P-6 prepacked column.
# Protease Assay: HCV protease assays were performed at 30° C. using a 200 μl reaction mix in a 96-well microtiter plate. Assay buffer conditions (25 mM MOPS pH 6.5, 300 mM NaCl, 10% glycerol, 0.05% lauryl maltoside, 5 μM EDTA and 5 μM DTT) were optimized for the NS3/NS4A heterodimer (D. L. Sali et al, ibid.)). […] Fifty μls of prewarmed protease (12 nM, 30° C.) in assay buffer, was then used to initiate the reaction (final volume 200 μl).The plates were monitored over the length of the assay (60 minutes) for change in absorbance at the appropriate wavelength (340 nm for 3-Np and HMC, 370 nm for PAP, and 400 nm for 4-Np) using a Spectromax Plus microtiter plate reader equipped with a monochrometer (acceptable results can be obtained with plate readers that utilize cutoff filters). Proteolytic cleavage of the ester linkage between the Nva and the chromophore was monitored at the appropriate wavelength against a no enzyme blank as a control for non-enzymatic hydrolysis. The evaluation of substrate kinetic parameters was performed over a 30-fold substrate concentration range (˜6-200 μM). Initial velocities were determined using linear regression and kinetic constants were obtained by fitting the data to the Michaelis-Menten equation using non-linear regression analysis (Mac Curve Fit 1.1, K. Raner). Turnover numbers (kcat) were calculated assuming the enzyme was fully active.
# Evaluation of Inhibitors and Inactivators: The inhibition constants (Kj) for the competitive inhibitors Ac-D-(D-Gla)-L-I-(Cha)-C-OH (27) (SEQ ID NO: 2), Ac-DTEDVVA(Nva)-OH (SEQ ID NO: 3) and Ac-DTEDVVP(Nva)-OH (SEQ ID NO: 4) were determined experimentally at fixed concentrations of enzyme and substrate by plotting vo/vi vs. inhibitor concentration ([I]o) according to the rearranged Michaelis-Menten equation for competitive inhibition kinetics: vo/vi=1[I]o/(Ki(1+[S]o/Km)), where vo is the uninhibited initial velocity, vi is the initial velocity in the presence of inhibitor at any given inhibitor concentration ([I]o) and [S]o is the substrate concentration used. The resulting data were fitted using linear regression and the resulting slope, 1/(Ki(1[S]o/Km), was used to calculate the Ki* value.
row,Structure (SMILES),Ki [nM]
1,CCCC(NC(=O)C1CN(Cc2ccccc2)C(=O)N1C(=O)C(NC(=O)C(NC(C)=O)C(C)C)C1CCCCC1)C(=O)C(=O)NCC(=O)NC(C(=O)O)c1ccccc1 (stereo not shown) [Example 49],1 to 1000
2,CCCC(NC(=O)C1CN(Cc2ccc(C)c(C)c2)C(=O)N1C(=O)C(NC(=O)C(NC(C)=O)C(C)C)C1CCCCC1)C(=O)C(=O)NCC(=O)NC(C(=O)O)c1ccccc1 (stereo not shown) [Example 51],1 to 1000
3,CCCC(NC(=O)C1CN(Cc2cccc(C)c2)C(=O)N1C(=O)C(NC(=O)C(NC(C)=O)C(C)C)C1CCCCC1)C(=O)C(=O)NCC(=O)NC(C(=O)O)c1ccccc1 (stereo not shown) [Example 53],1 to 1000
4,CCCC(NC(=O)C1CN(Cc2ccc(C)cc2)C(=O)N1C(=O)C(NC(=O)C(NC(C)=O)C(C)C)C1CCCCC1)C(=O)C(=O)NCC(=O)NC(C(=O)O)c1ccccc1 (stereo not shown) [Example 54],1 to 1000
5,CCCC(NC(=O)C1CN(Cc2cccc(OC)c2)C(=O)N1C(=O)C(NC(=O)C(NC(C)=O)C(C)C)C1CCCCC1)C(=O)C(=O)NCC(=O)NC(C(=O)O)c1ccccc1 (stereo not shown) [Example 55],1 to 1000
6,CCCC(NC(=O)C1CN(Cc2ccc(OC)cc2)C(=O)N1C(=O)C(NC(=O)C(NC(C)=O)C(C)C)C1CCCCC1)C(=O)C(=O)NCC(=O)NC(C(=O)O)c1ccccc1 (stereo not shown) [Example 56],1 to 1000
7,CCCC(NC(=O)C1CN(Cc2ccc(C(C)(C)C)cc2)C(=O)N1C(=O)C(NC(=O)C(NC(C)=O)C(C)C)C1CCCCC1)C(=O)C(=O)NCC(=O)NC(C(=O)O)c1ccccc1 (stereo not shown) [Example 57],1 to 1000

# Same assay, conditions: recombinant heterodimeric NS3/NS4A, chromogenic ester substrates, 30° C., pH 6.5; ranges of Ki* values; read-out: Ki*
row,Structure (SMILES),Ki [nM]
1,CCCC(NC(=O)C1CN(Cc2cccc(Cl)c2)C(=O)N1C(=O)C(NC(=O)OCC(C)C)C1CCCCC1)C(=O)C(=O)NCC(=O)N[C@H](C(=O)OCc1ccccc1)c1ccccc1 (stereo partly shown) [Example 39],> 50000
2,CCCC(NC(=O)C1CN(Cc2ccc(Br)cc2)C(=O)N1C(=O)C(NC(=O)OC(C)(C)C)C1CCCCC1)C(=O)C(=O)NCC(=O)N[C@H](C(=O)O)c1ccccc1 (stereo partly shown) [Example 40],> 50000
3,CCCC(NC(=O)C1CN(Cc2cccc(Br)c2)C(=O)N1C(=O)C(NC(=O)OC(C)(C)C)C1CCCCC1)C(=O)C(=O)NCC(=O)N[C@H](C(=O)O)c1ccccc1 (stereo partly shown) [Example 41],> 50000
4,CCCC(NC(=O)C1CN(Cc2ccc(Cl)cc2)C(=O)N1C(=O)C(NC(=O)OC(C)(C)C)C1CCCCC1)C(=O)C(=O)NCC(=O)N[C@H](C(=O)O)c1ccccc1 (stereo partly shown) [Example 42],> 50000
5,CCCC(NC(=O)C1CN(Cc2cccc(Cl)c2)C(=O)N1C(=O)C(NC(=O)OC(C)(C)C)C1CCCCC1)C(=O)C(=O)NCC(=O)N[C@H](C(=O)O)c1ccccc1 (stereo partly shown) [Example 43],> 50000
6,CCCC(NC(=O)C1CN(Cc2ccc(Br)cc2)C(=O)N1C(=O)C(NC(=O)OCC(C)C)C1CCCCC1)C(=O)C(=O)NCC(=O)N[C@H](C(=O)O)c1ccccc1 (stereo partly shown) [Example 44],> 50000
7,CCCC(NC(=O)C1CN(Cc2cccc(Br)c2)C(=O)N1C(=O)C(NC(=O)OCC(C)C)C1CCCCC1)C(=O)C(=O)NCC(=O)N[C@H](C(=O)O)c1ccccc1 (stereo partly shown) [Example 45],> 50000
8,CCCC(NC(=O)C1CN(Cc2ccc(Cl)cc2)C(=O)N1C(=O)C(NC(=O)OCC(C)C)C1CCCCC1)C(=O)C(=O)NCC(=O)N[C@H](C(=O)O)c1ccccc1 (stereo partly shown) [Example 46],> 50000
9,CCCC(NC(=O)C1CN(Cc2cccc(Cl)c2)C(=O)N1C(=O)C(NC(=O)OCC(C)C)C1CCCCC1)C(=O)C(=O)NCC(=O)N[C@H](C(=O)O)c1ccccc1 (stereo partly shown) [Example 47],> 50000
10,CCCC(NC(=O)C1CN(Cc2ccccc2)C(=O)N1C(=O)C(NC(=O)OCC(C)C)C1CCCCC1)C(=O)C(=O)NCC(=O)N[C@H](C(=O)O)c1ccccc1 (stereo partly shown) [Example 48],1000 to 50000
11,CCCC(NC(=O)C1CN(Cc2ccc(C)c(C)c2)C(=O)N1C(=O)C(NC(=O)OCC(C)C)C1CCCCC1)C(=O)C(=O)NCC(=O)N[C@H](C(=O)O)c1ccccc1 (stereo partly shown) [Example 50],1000 to 50000
12,CCCC(NC(=O)C1CN(Cc2cccc(C)c2)C(=O)N1C(=O)C(NC(=O)OCC(C)C)C1CCCCC1)C(=O)C(=O)NCC(=O)N[C@H](C(=O)O)c1ccccc1 (stereo partly shown) [Example 52],1 to 1000
